Data: the supplement of paper PMC6089552
Hit rate of the full screen: of about 3,200 compounds, about 300 (9.4%) showed activity. Only a part is listed here, and it is no random draw.

Test system: A673/TR/shEF
Test: cell viability (LOESS-normalised, relative to median of negative controls) (log2 ratio); higher = more viable cells (less compound effect), active = hit call of the paper (over 3 MAD below the median)
Conditions: treatment time: 72 h
Method in brief: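 A673/TR/shEF Ewing sarcoma cells were plated at 1,500 per well in 384-well plates and cultured with or without doxycycline, added 24 h before compounds, to induce EWS-FLI1 shRNA knockdown. Library compounds at two or more concentrations, alongside DMSO controls, were applied for three days. Cell viability was measured by CellTiter-Glo luminescence on an Envision reader. Readings were LOESS-corrected per plate, divided by the median of negative controls and log2-transformed, and hits were wells lying at least three median absolute deviations from the median of all screened wells.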

[1] = 0.25 µM, library screen: screen1, EWS-FLI1 expression: high (no doxycycline)
[2] = 0.25 µM, library screen: screen1, EWS-FLI1 expression: low (doxycycline-induced shRNA knockdown)
[3] = 0.25 µM, library screen: screen2, EWS-FLI1 expression: high (no doxycycline)
[4] = 0.25 µM, library screen: screen2, EWS-FLI1 expression: low (doxycycline-induced shRNA knockdown)
[5] = 2.5 µM, library screen: screen1, EWS-FLI1 expression: high (no doxycycline)
[6] = 2.5 µM, library screen: screen1, EWS-FLI1 expression: low (doxycycline-induced shRNA knockdown)
[7] = 2.5 µM, library screen: screen2, EWS-FLI1 expression: high (no doxycycline)
[8] = 2.5 µM, library screen: screen2, EWS-FLI1 expression: low (doxycycline-induced shRNA knockdown)
[9] = 0.103 µM, library screen: screen3, EWS-FLI1 expression: high (no doxycycline)
[10] = 0.103 µM, library screen: screen3, EWS-FLI1 expression: low (doxycycline-induced shRNA knockdown)
[11] = 0.308 µM, library screen: screen3, EWS-FLI1 expression: high (no doxycycline)
[12] = 0.308 µM, library screen: screen3, EWS-FLI1 expression: low (doxycycline-induced shRNA knockdown)
[13] = 0.926 µM, library screen: screen3, EWS-FLI1 expression: high (no doxycycline)
[14] = 0.926 µM, library screen: screen3, EWS-FLI1 expression: low (doxycycline-induced shRNA knockdown)
[15] = 2.8 µM, library screen: screen3, EWS-FLI1 expression: high (no doxycycline)
[16] = 2.8 µM, library screen: screen3, EWS-FLI1 expression: low (doxycycline-induced shRNA knockdown)
[17] = 8.3 µM, library screen: screen3, EWS-FLI1 expression: high (no doxycycline)
[18] = 8.3 µM, library screen: screen3, EWS-FLI1 expression: low (doxycycline-induced shRNA knockdown)
[19] = 25 µM, library screen: screen3, EWS-FLI1 expression: high (no doxycycline)
[20] = 25 µM, library screen: screen3, EWS-FLI1 expression: low (doxycycline-induced shRNA knockdown)

Measured: cell viability (log2)

C[N+]1(CCCCC[N+]2(C)CCCC2)CCCC1
inactive: [1] 0.0238 | [2] 0.0337 | [3] 0.156 | [4] 0.0846 | [5] 0.121 | [6] 0.0345 | [7] 0.163 | [8] 0.0884

O=C(Nc1ccccc1)c1cc([N+](=O)[O-])ccc1Cl
inactive: [3] 0.158 | [4] 0.0928 | [7] 0.158 | [8] 0.106

CO/N=C(\C(=O)N[C@@H]1C(=O)N2C(C(=O)OCOC(=O)C(C)(C)C)=C(/C=C\c3scnc3C)CS[C@H]12)c1csc(N)n1
inactive: [9] 0.00133 | [10] 0.0197 | [11] 0.0394 | [12] 0.0454 | [13] 0.0372 | [14] 0.00912 | [15] 0.0102 | [16] -0.00348 | [17] 0.0518 | [18] 0.0133 | [19] -0.0149 | [20] 0.0407

Cn1cnc2nc(NCCO)nc(NCc3ccccc3)c21
inactive: 0.025 µM, library screen: screen1, EWS-FLI1 expression: high (no doxycycline) 0.128 | 0.025 µM, library screen: screen1, EWS-FLI1 expression: low (doxycycline-induced shRNA knockdown) 0.0359 | [1] 0.0849 | [2] 0.00162 | [5] -0.0202 | [6] 0.00254 | 25 µM, library screen: screen1, EWS-FLI1 expression: high (no doxycycline) 0.0813 | 25 µM, library screen: screen1, EWS-FLI1 expression: low (doxycycline-induced shRNA knockdown) 0.0973

COc1c2ccoc2c(OC)c2oc(=O)ccc12
inactive: [1] 0.157 | [2] -0.0309 | [5] 0.197 | [6] 0.0899

COc1ccc([C@@H]2CC(=O)c3c(O)cc(O[C@@H]4O[C@H](CO[C@@H]5O[C@@H](C)[C@H](O)[C@@H](O)[C@H]5O)[C@@H](O)[C@H](O)[C@H]4O)cc3O2)cc1O
inactive: [1] 0.189 | [2] 0.144 | [5] 0.16 | [6] 0.172

CC(C)(C(=O)O)c1ccc(C(O)CCCN2CCC(C(O)(c3ccccc3)c3ccccc3)CC2)cc1 (stereo not drawn)
inactive: [1] 0.00879 | [2] 0.0307 | [3] 0.284 | [4] 0.097 | [5] 0.0359 | [6] 0.0422 | [7] 0.192 | [8] 0.139

Cc1cc(C(C)(C)C)c(O)c(C)c1CC1=NCCN1
inactive: [9] 0.0927 | [10] 0.118 | [1] 0.102 | [2] 0.143 | [3] 0.2 | [4] 0.136 | [11] 0.116 | [12] 0.0968 | [13] 0.0883 | [14] 0.0478 | [5] 0.125 | [6] 0.241 | [7] 0.15 | [8] 0.0298 | [15] 0.124 | [16] 0.0935 | [17] 0.094 | [18] 0.063 | [19] 0.112 | [20] 0.066

NC(Cc1ccc(Cl)cc1)C(=O)O (stereo not drawn)
inactive: [1] 0.0377 | [2] 0.114 | [3] 0.187 | [4] 0.149 | [5] 0.0986 | [6] 0.0294 | [7] 0.0837 | [8] 0.083

CCCCS(=N)(=O)CC[C@H](N)C(=O)O (stereo partly drawn)
inactive: [3] 0.282 | [4] 0.133 | [7] 0.123 | [8] -0.00331

CC(=O)OC1CCC2(C)C(CCC3C2CCC2(C)C3CC3OC4(CCC(C)CO4)C(C)C32)C1 (stereo not drawn)
inactive: [1] 0.0872 | [2] 0.0698 | [5] 0.151 | [6] 0.0624

CN(C)CCCN1c2ccccc2Sc2ccccc21
active: [7] -1.62 | [8] -0.801

Fc1cccc(CN(C2=NCCN2)c2c(Cl)cccc2Cl)c1
inactive: [3] 0.243 | [4] 0.118 | [7] 0.138 | [8] 0.0968

C[N+]1(C)C[C@H](O)C[C@H]1C(=O)[O-]
inactive: [1] 0.068 | [2] -0.00246 | [5] 0.0629 | [6] 0.0874

CC1C(=O)CC2CC1C2(C)C (stereo not drawn)
inactive: [2] 0.0655 | [5] 0.091 | [6] 0.103
active: [1] -0.106

COC(=O)C[C@H](NC(=O)[C@H](C)NC(=O)[C@@H](NC(=O)OCc1ccccc1)C(C)C)C(=O)CF
inactive: [1] 0.0634 | [2] 0.0507 | [5] 0.0598 | [6] -0.112

CC(=O)Nc1ccccc1
inactive: [1] 0.117 | [2] 0.042 | [5] 0.102 | [6] -0.0494

CSc1ccc2c(c1)C(N1CCN(C)CC1)Cc1ccccc1S2 (stereo not drawn)
inactive: [3] 0.228 | [4] 0.154 | [7] 0.066 | [8] 0.0449

COc1ccc(-c2cc(=O)c3c(O)cc(O)c(-c4cc(-c5cc(=O)c6c(O)cc(O)cc6o5)ccc4OC)c3o2)cc1
inactive: [1] 0.0752 | [2] 0.0482 | [5] 0.146 | [6] 0.173

COc1ccc2c(=O)c(-c3cc4c(cc3OC)OCO4)coc2c1
inactive: [1] 0.0588 | [2] -0.078 | [5] 0.0766 | [6] 0.0171
